# This is one part of the list.
# B1: ClecSol-Fc (Cryptosporidium parvum) (protein)
# chain: CPEGWISNGEKTRCFKLVTFDRPRTFSHGFKACNDLGGTEVETRRRNGSKETNEYPVTLASVYKLSDEEAIRRTLVEQGDIHKTANGCFVGLRKYAFFRYPPGWYWIDSGSPVSVRDSEINWTSSYNASWLLRFKFPFEKCGFFDIGGLGRRPCWLIDSELSCAVCGTVAYDSGGLNPNKYSELIKQTDEIISKEPKLDLPGYNNLNCTDAWENNLSVGLCQNVSNILDSAWSSYQSSLNFPSINFNWKEDSTNEGGDQVYHNSYLDLPRYKQKKTFYWDQDPGTIPALSDEMKLIGLSAQPTYHPLDRSSSGSFESDSTESGRANEERNDTLEEMIYKQSSDSIEDILVPVTKPIFSDYSSIGRNSGVEEVYSSNVSTISSKGVVFPNTTTSSDNDFTKNNPANSSKHTSTSTTTNTTTTTTRTTTTTTTTTTTTTTTTTTTTETTTTKKSTTATKNTTTT
# Tests used:
# Experiment in all cases: glycan array binding signal (z-score within array); higher = stronger binding
# Conditions in all cases: glycan notation: IUPAC condensed, linker removed
# [1] = biological target: Gal3S(b1-4)Glc
# Method in brief: (§1)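 Arrays were curated from the Consortium for Functional Glycomics database, 3228 in total, and kept only where the protein sequence was available. Binding is expressed as a within-array Z-score. This score was averaged across arrays of the same protein sequence at different concentrations or buffers and across linkers, and negative values can be read as non-binding.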
# [2] = biological target: Gal3S(b1-4)Glc6S
# Method in brief: as §1
# [3] = biological target: Gal3S(b1-4)GlcNAc
# Method in brief: as §1
# [4] = biological target: Gal3S(b1-4)[Fuc(a1-3)]Glc6S
# Method in brief: as §1
# [5] = biological target: Gal3S(b1-4)[Fuc(a1-3)]GlcNAc
# Method in brief: as §1
# [6] = biological target: Gal3S(b1-4)[Fuc(a1-3)]GlcNAc6S
# Method in brief: as §1
# [7] = biological target: Gal3S4S(b1-4)GlcNAc
# Method in brief: as §1
# [8] = biological target: Gal3S6S(b1-4)GlcNAc
# Method in brief: as §1
# [9] = biological target: Gal3S6S(b1-4)GlcNAc6S
# Method in brief: as §1
# [10] = biological target: Gal4S(b1-4)GlcNAc
# Method in brief: as §1
# [11] = biological target: Gal4S6S(b1-4)GlcNAc
# Method in brief: as §1
# [12] = biological target: Gal6P(b1-4)GlcNAc
# Method in brief: as §1
# [13] = biological target: Gal6S(b1-3)GlcNAc
# Method in brief: as §1
# [14] = biological target: Gal6S(b1-3)GlcNAc6S
# Method in brief: as §1
# [15] = biological target: Gal6S(b1-4)Glc
# Method in brief: as §1
# [16] = biological target: Gal6S(b1-4)Glc6S
# Method in brief: as §1
# [17] = biological target: Gal6S(b1-4)GlcNAc
# Method in brief: as §1
# [18] = biological target: Gal6S(b1-4)GlcNAc6S
# Method in brief: as §1
# [19] = biological target: GalNAc(a1-3)Gal
# Method in brief: as §1
# [20] = biological target: GalNAc(a1-3)GalNAc
# Method in brief: as §1
# [21] = biological target: GalNAc(a1-3)GalNAc(b1-3)Gal(a1-4)Gal(b1-4)Glc
# Method in brief: as §1
# [22] = biological target: GalNAc(a1-3)GalNAc(b1-3)Gal(a1-4)Gal(b1-4)GlcNAc
# Method in brief: as §1
# [23] = biological target: GalNAc(b1-3)Gal
# Method in brief: as §1
# [24] = biological target: GalNAc(b1-3)Gal(a1-4)Gal(b1-4)GlcNAc
# Method in brief: as §1
# [25] = biological target: GalNAc(b1-3)Gal(a1-4)Gal(b1-4)GlcNAc(b1-3)Gal(b1-4)Glc
# Method in brief: as §1
# [26] = biological target: GalNAc(b1-3)Gal(a1-6)Gal(b1-4)Glc
# Method in brief: as §1
# [27] = biological target: GalNAc(b1-3)GalNAc
# Method in brief: as §1
# [28] = biological target: GalNAc(b1-3)GlcNAc
# Method in brief: as §1
# [29] = biological target: GalNAc(b1-4)Gal(b1-4)Glc
# Method in brief: as §1
# [30] = biological target: GalNAc(b1-4)GlcNAc
# Method in brief: as §1
# [31] = biological target: GalNAc(b1-4)GlcNAc(b1-2)Man
# Method in brief: as §1
# [32] = biological target: GalNAc(b1-4)GlcNAc(b1-2)Man(a1-3)[GalNAc(b1-4)GlcNAc(b1-2)Man(a1-6)]Man(b1-4)GlcNAc(b1-4)GlcNAc
# Method in brief: as §1
# [33] = biological target: GalNAc(b1-4)GlcNAc(b1-3)GalNAc(b1-4)GlcNAc
# Method in brief: as §1
# [34] = biological target: GalNAc(b1-4)GlcNAc6S
# Method in brief: as §1
# [35] = biological target: GalNAc(b1-6)GalNAc
# Method in brief: as §1
# [36] = biological target: GalNAc3S(b1-4)GlcNAc
# Method in brief: as §1
# [37] = biological target: GalNAc3S(b1-4)GlcNAc3S
# Method in brief: as §1
binder,measurement,setting,value
B1,glycan array binding signal (z-score),[1],-0.127
same,glycan array binding signal (z-score),[2],-0.039
same,glycan array binding signal (z-score),[3],-0.151
same,glycan array binding signal (z-score),[4],0.088
same,glycan array binding signal (z-score),[5],0.021
same,glycan array binding signal (z-score),[6],-0.091
same,glycan array binding signal (z-score),[7],-0.28
same,glycan array binding signal (z-score),[8],0.024
same,glycan array binding signal (z-score),[9],-0.164
same,glycan array binding signal (z-score),[10],-0.03
same,glycan array binding signal (z-score),[11],-0.054
same,glycan array binding signal (z-score),[12],-0.086
same,glycan array binding signal (z-score),[13],0.001
same,glycan array binding signal (z-score),[14],-0.065
same,glycan array binding signal (z-score),[15],-0.16
same,glycan array binding signal (z-score),[16],-0.036
same,glycan array binding signal (z-score),[17],-0.208
same,glycan array binding signal (z-score),[18],-0.197
same,glycan array binding signal (z-score),[19],-0.273
same,glycan array binding signal (z-score),[20],-0.134
same,glycan array binding signal (z-score),[21],-0.27
same,glycan array binding signal (z-score),[22],-0.069
same,glycan array binding signal (z-score),[23],-0.076
same,glycan array binding signal (z-score),[24],0.314
same,glycan array binding signal (z-score),[25],-0.19
same,glycan array binding signal (z-score),[26],-0.242
same,glycan array binding signal (z-score),[27],-0.202
same,glycan array binding signal (z-score),[28],-0.236
same,glycan array binding signal (z-score),[29],-0.098
same,glycan array binding signal (z-score),[30],-0.174
same,glycan array binding signal (z-score),[31],-0.171
same,glycan array binding signal (z-score),[32],-0.238
same,glycan array binding signal (z-score),[33],-0.133
same,glycan array binding signal (z-score),[34],-0.226
same,glycan array binding signal (z-score),[35],-0.238
same,glycan array binding signal (z-score),[36],-0.13
same,glycan array binding signal (z-score),[37],0.029

# Reference: the supplement of paper PMC8728848
